Source: PubChem BioAssay AID1346428 (National Center for Advancing Translational Sciences (NCATS), 2018)
Among all 48,000 compounds or so, about 1,200 (2.5%) were called active. Inconclusive results (about 2%) are left out.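 How the source made its calls: active means activation of at least 60% and not above a set upper limit (about 1 call in 100 departs from these limits); inconclusive means activation of 40% to 60%, or above that upper limit; inactive means activation under 40%.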 Some of the results follow.

Target: Probable G-protein coupled receptor 32 (Homo sapiens) (UniProt O75388)
UniProt O75388, sequence (O75388 whole entry, looked up): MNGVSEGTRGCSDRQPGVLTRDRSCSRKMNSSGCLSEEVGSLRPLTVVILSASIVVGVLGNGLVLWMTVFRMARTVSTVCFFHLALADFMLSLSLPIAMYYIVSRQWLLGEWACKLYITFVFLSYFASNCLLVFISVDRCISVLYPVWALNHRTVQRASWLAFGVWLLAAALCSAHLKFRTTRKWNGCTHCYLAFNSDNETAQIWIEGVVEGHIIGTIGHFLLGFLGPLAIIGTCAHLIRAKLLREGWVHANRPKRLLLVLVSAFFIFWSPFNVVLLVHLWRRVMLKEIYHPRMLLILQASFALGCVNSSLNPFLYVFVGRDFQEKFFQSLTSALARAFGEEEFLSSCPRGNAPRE
Test: qHTS for Agonists of Human Resolvin D1 Receptor DRV1; further: 0% is about no effect
Details: CHO-K1 GPR32 beta-arrestin PathHunter luminescence, 90 min; at 76.9 µM; stronger effect = higher value; zero percent set by DMSO-only wells
In short: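 Luminescent readout of beta-Gal complementation quantifies ligand-induced beta-arrestin association with GPR32 in CHO-K1 cells; 90 min compound incubation at 37 °C, detection 1 h at room temperature.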

activation, inactive:
Cc1noc(Cn2c(=O)c3ccccc3n(CC(=O)Nc3ccc(F)cc3F)c2=O)n1 -19.5%, CC1=C(C(=O)Nc2ccccc2C)C(c2ccco2)n2ncnc2N1 (stereo not drawn) 8.27%, CCOc1ccc(NC(=O)c2cc(S(=O)(=O)N3CCCC3)c[nH]2)cc1 -4.55%, Cc1sc(-n2cccc2)c(C(C)NC(=O)Nc2ccccc2Cl)c1C (stereo not drawn) -16.7%, COC(=O)c1ccccc1NC(=O)c1cc2c(s1)-c1ccccc1OC2 -1.2%, CCOc1ccc(CCNC(=O)c2ccc3c(c2)N(Cc2ccccc2)C(=O)c2ccccc2S3=O)cc1OCC (stereo not drawn) -9.2%, O=C(CN(c1cc(C(F)(F)F)ccc1Cl)S(=O)(=O)c1ccccc1)NCCc1ccccc1 -1.86%, COc1ccc(-c2c(C#N)c(SCC(=O)Nc3ccc(Br)cc3)nc(C)c2C(=O)Nc2ccccc2)cc1 -22%, OC(CN1CCN(c2cccc(Cl)c2)CC1)C(c1ccccc1)c1ccccc1 (stereo not drawn) 6.8%, O=C(CSc1nc(-c2ccccc2)c2ccccc2n1)Nc1ccc(F)cc1 -9.69%, CC1=C(C(=O)N2CCCCC2)C(c2cccc(Cl)c2)n2c(nc3ccccc32)N1 (stereo not drawn) -9.62%, Cc1cc(C)c(S(=O)(=O)NCCc2cc3ccc(C)cc3[nH]c2=O)c(C)c1 -4.41%, CCN(CC)CCCNC(=O)C1CCN(S(C)(=O)=O)CC1 -0.0455%, Cc1c(C)n(Cc2ccccc2)c2ccc(C(=O)NCc3ccc(OC(C)C)cc3)cc12 -15.9%, CCc1nnc2c3ccccc3nc(Nc3ccccc3OC)n12 -9.08%, Cc1cccc(N2CCN(S(=O)(=O)c3ccc4oc(=O)c5ncn(C)c5c4c3)CC2)c1C 9.09%, O=C(CCCCn1c(=O)c2ccccc2n(CC(=O)Nc2ccccc2)c1=O)NCc1ccccc1Cl 3.31%, CCOc1ccc(C(=O)Nc2ccc(-c3nc4cc(C)ccc4o3)cc2)cc1 -0.698%, CCOC(=O)c1sc(NC(=O)C(C)Sc2nc(-c3ccccc3)cc(C(F)(F)F)n2)c(C(=O)OC)c1C (stereo not drawn) 7.2%, Cc1oc(-c2ccc(C(=O)Nc3cccc(C(F)(F)F)c3)cc2)nc1CSc1ccccc1 -16.3%, COc1ccc(Nc2nc3ccc(Cl)cc3n3nnnc23)cc1OC 1.65%, CCCC(=O)C1=C(c2ccc(C)cc2)N(C(=O)CCC)n2cnnc2S1 -46.6%, COc1ccc(-c2nc3scc(CCNS(=O)(=O)c4ccc(F)c(C(F)(F)F)c4)n3n2)cc1OC -9.69%
